These are enrichments in a pooled selection; single values are uncertain.
System: NB7
Assay: fold depletion of shRNA, plasmid library share / infected cells without Dox share (9 days) (ratio); higher = more depleted after infection (more toxic, leaky expression from a Tet-inducible vector; NB7 is a neuroblastoma line without caspase-8)
Details: shRNA pool: CD95L ORF + CD95L 3'UTR + Venus libraries
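Also: shRNA barcodes quantified by deep sequencing of PCR amplicons from cellular DNA, counts expressed as percent of each subpool, ratio averaged over two biological duplicates.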

| Sequence | fold depletion of shRNA |
| --- | --- |
| TACCCCGACCACATGAAGCAG | 0.94 |
| TACCGCTGCCACCCCTGAAGA | 1.49 |
| TACCTCAAGGGGGACTGTCTT | 2.17 |
| TACCTGGGGGCAGTGTTCAAT | 1.72 |
| TACGGCAAGCTGACCCTGAAG | 1.1 |
| TACGGCCTGCAGTGCTTCGCC | 0.313 |
| TACGTCCAGGAGCGCACCATC | 2.67 |
| TACTAATGATGTTTTCCTATA | 0.705 |
| TACTTCCGGGGTCAATCTTGC | 1.06 |
| TACTTTGTATATTCCAAAGTA | 0.401 |
| TAGAACTCTGGGCTGCCATGT | 1.91 |
| TAGAGGCTTGCATAATAAGCT | 7.6 |
| TAGATATTGTGAAGTACATAT | 0.573 |
| TAGGAAAATATGGGTTGCATT | 3.93 |
| TAGGGGTGTGTGTGTGTGTGT | 1.17 |
| TAGTGCCTGAGAGTATTTAGG | 0.815 |
| TAGTGCTTAAAAATCATTGAT | 1.15 |
| TATAAGAAGGGTGGCCTTGTG | 3.88 |
| TATAATAAATATTTATGTAGA | 1.05 |

| Sequence | fold depletion of shRNA |
| --- | --- |
| TATAATATAATAAATATTTAT | 1.47 |
| TATATCACCGCCGACAAGCAG | 1.29 |
| TATATGTCAACGTATCTGAGC | 1.73 |
| TATATTCCAAAGTATACTTCC | 0.514 |
| TATCACCGCCGACAAGCAGAA | 2.37 |
| TATCCCCAGATCTACTGGGTG | 1.65 |
| TATCCTGAGCCATCGGTGAAA | 0.868 |
| TATCTGAGCTCTCTCTGGTCA | 3.1 |
| TATGACGGAAGAACATAGAAC | 2.55 |
| TATGACTAAAGAGAGAATGTA | 0.643 |
| TATGATTCTTTGTTACAGGCA | 2.1 |
| TATGGAATTGTCCTGCTTTCT | 1.07 |
| TATGGGTTGCATTTGGTCAAG | 0.688 |
| TATGTAGATGTGCATTTTTGT | 7.23 |
| TATGTCAACGTATCTGAGCTC | 4.67 |
| TATTAGGAAAATATGGGTTGC | 1.63 |
| TATTCAGTGAGGGTCTTCTTA | 3.57 |
| TATTCCAAAGTATACTTCCGG | 1.9 |
| TATTGTGAAGTACATATTAGG | 1.05 |

| Sequence | fold depletion of shRNA |
| --- | --- |
| TATTTAGGCAGATTGAAAAGG | 2.06 |
| TATTTATGTAGATGTGCATTT | 0.918 |
| TCAAAATGTCTGTAGCTCCTC | 4.8 |
| TCAAAGGAGGCCACCACCACC | 6.52 |
| TCAACGTATCTGAGCTCTCTC | 1.97 |
| TCAACTCACCTAATGTTTATG | 1.74 |
| TCAACTCTAATAGTGCTTAAA | 0.485 |
| TCAAGATCCGCCACAACATCG | 3.18 |
| TCAAGATTTTGAATGCTTCCT | 10.2 |
| TCAAGGACGACGGCAACTACA | 1.11 |
| TCAAGGAGGACGGCAACATCC | 1.3 |
| TCAAGGCCAACTTCAAGATCC | 1.16 |
| TCAAGGGGGACTGTCTTTCAG | 1.56 |
| TCAAGGTCCATGCCTCTGGAA | 2.15 |
| TCAAGGTGGGCCTTGCTACCT | 7.2 |
| TCAAGTAAGAAGACATGAACC | 3.97 |
| TCAAGTCCGCCATGCCCGAAG | 1.44 |
| TCAATCTTACCAGTGCTGATC | 1.14 |

Same assay, conditions: shRNA pool: CD95 ORF + CD95 3'UTR + Venus libraries

| Sequence | fold depletion of shRNA |
| --- | --- |
| TACCCCGACCACATGAAGCAG | 0.927 |
| TACCTACTTCTTTCTCAGGCA | 1.34 |
| TACCTCAAAGACCTTTGCACA | 2.22 |
| TACCTCTGATAATTCTAGAGA | 1.54 |
| TACCTCTGGTTCTTACGTCTG | 1.76 |
| TACCTGAGCTACCAGTCCGCC | 0.767 |
| TACCTGGAACCACCTAAAGAA | 1.17 |
| TACGGCAAGCTGACCCTGAAG | 0.848 |
| TACGGCCTGCAGTGCTTCGCC | 0.315 |
| TACGTAATTAAATAATGTTTT | 0.851 |
| TACGTCCAGGAGCGCACCATC | 1.58 |
| TACGTCTGTTGCTAGATTATC | 5.24 |
| TACGTTTAAATATCTTTGAAA | 0.791 |
| TACTAACTGCTCTCAGAGAAA | 0.699 |
| TACTACAGTTGAGACTCAGAA | 1.01 |
| TACTACTATCCTACGTTTAAA | 0.777 |
| TACTAGTGACTCAGAAAATTC | 0.737 |
| TACTATCCTACGTTTAAATAT | 0.764 |
| TACTCTTGCAGAGAAAATTCA | 0.854 |
| TACTGGCTCAAAACTACCTAC | 1.28 |
| TACTGGGTACATTTTATCATT | 0.814 |
| TACTGTATGTGAACACTGTGA | 1.58 |

| Sequence | fold depletion of shRNA |
| --- | --- |
| TACTTAATAGTCCACCAAAAG | 1.99 |
| TACTTCTTTCTCAGGCATCAA | 1.55 |
| TAGAAAACATTAAATTATAAT | 1.3 |
| TAGAAATTCTAGCCTGGTTTG | 0.587 |
| TAGAAGTGGAAATAAACTGCA | 1.4 |
| TAGAGTGAAAAACAACAAATT | 0.592 |
| TAGATTCTTATTTTTCCCCCA | 1.32 |
| TAGATTGTGTGATGAAGGACA | 15.7 |
| TAGATTTTTAATATCTCATGA | 1.09 |
| TAGCAATGGTAAAATCATCAT | 1.44 |
| TAGGAGTGTATGCAGAGGATG | 1.83 |
| TAGGTAAAAGTACGTAATTAA | 0.915 |
| TAGTACAAATGTCTATCCACA | 1.05 |
| TAGTATGAATGTAATCAGTGT | 2.14 |
| TAGTGACTCAGAAAATTCAAA | 0.835 |
| TAGTGTTTGAAAAGATTCTTA | 0.841 |
| TAGTTATAAACTGAAGCAGAT | 1.09 |
| TAGTTGGGAAAACAAACTTCA | 4.77 |
| TATAAAATATAGGTAAAAGTA | 0.811 |
| TATAAACTGAAGCAGATACCT | 0.884 |
| TATAACTCTGAGAAGATCATA | 1.3 |
| TATAATGTTTGACTATTATAT | 0.874 |

| Sequence | fold depletion of shRNA |
| --- | --- |
| TATACAATATTTCAATTGTGA | 0.848 |
| TATACATAGCAATGGTAAAAT | 0.907 |
| TATAGGTAAAAGTACGTAATT | 0.921 |
| TATATATGTGTATGCATTTTA | 1.19 |
| TATATCACCACTATTGCTGGA | 1.61 |
| TATATCACCGCCGACAAGCAG | 1.57 |
| TATATGCAATTAGTGTTTGAA | 1.85 |
| TATATGTATTTGAGTGCAGAA | 1.57 |
| TATATGTGTATGCATTTTACT | 1.72 |
| TATATTTCTGTAAATGTAAAC | 1.49 |
| TATCACCAAAAAATACTTAAT | 1.16 |
| TATCACCACTATTGCTGGAGT | 1.76 |
| TATCACCGCCGACAAGCAGAA | 1.26 |
| TATCATCCTCAAGGACATTAC | 1.98 |
| TATCATTTATTAGCGCTGAAG | 2.46 |
| TATCCTACGTTTAAATATCTT | 0.622 |
| TATCGTCCAAAAGTGTTAATG | 3.68 |
| TATCTCATGATTCTGCCTCCA | 2.53 |
| TATCTGATGTTGACTTGAGTA | 2.07 |
| TATCTTTGAAAGTTTGTATTA | 0.873 |
| TATGAATCAATAGAAGAAGCT | 0.791 |
| TATGAATGTAATCAGTGTATG | 1.1 |

| Sequence | fold depletion of shRNA |
| --- | --- |
| TATGACACATTGATTAAAGAT | 1.39 |
| TATGACCTTTTGCTGAAATAT | 2.76 |
| TATGATTCTGTAGTATGAATG | 1.73 |
| TATGCAATTAGTGTTTGAAAA | 1.63 |
| TATGCAGAGGATGAAAGATTA | 0.987 |
| TATGCATTTTACTGGCTCAAA | 3.17 |
| TATGCTCTGGCATCTAACATA | 1.73 |
| TATGTAAAGTATATGTATTTG | 0.912 |
| TATGTATTTGAGTGCAGAATT | 1.28 |
| TATGTGAACACTGTGACCCTT | 2.71 |
| TATGTGTATGCATTTTACTGG | 1.12 |
| TATGTTAGTACAAATGTCTAT | 1.16 |
| TATTAAATGTGAATTTTAAGA | 1.13 |
| TATTACTAGAGCTTTGCCACC | 0.525 |
| TATTATACAATATTTCAATTG | 1.48 |
| TATTATATATGTGTATGCATT | 1.47 |
| TATTGCTGGAGTCATGACACT | 2.09 |
| TATTGGTGTCATATTATACAA | 0.821 |
| TATTTATATTTCTGTAAATGT | 0.734 |
| TATTTATGTAAAGTATATGTA | 1.01 |
| TATTTCAATTGTGAATTCACA | 0.966 |
| TATTTCTAAACTTTGTTTATA | 0.89 |

| Sequence | fold depletion of shRNA |
| --- | --- |
| TATTTCTGTAAATGTAAACTG | 1.29 |
| TATTTGAGTGCAGAATTTAAA | 1.05 |
| TATTTGTAGATTTTTAATATC | 0.857 |
| TATTTTTCCCCCACCCCCGAA | 2.55 |
| TCAAAAAAGCCAATCTTTGTA | 0.962 |
| TCAAAACTACCTACTTCTTTC | 2.84 |
| TCAAAAGCATTTTGAGCAGGA | 1.21 |
| TCAAACTTCAGAAATGAAATC | 0.865 |
| TCAAAGATGATAAAATAGATT | 1.05 |
| TCAACTGCTTCGTAATTGGCA | 1.44 |
| TCAACTTCATGGAAAGAAAGA | 0.84 |
| TCAAGAATGACAATGTCCAAG | 1.11 |
| TCAAGATCCGCCACAACATCG | 2.04 |
| TCAAGGACATTACTAGTGACT | 0.836 |
| TCAAGGACGACGGCAACTACA | 1.21 |
| TCAAGGAGGACGGCAACATCC | 1.08 |
| TCAAGTCCGCCATGCCCGAAG | 0.902 |
| TCAATAATGTCCCATGTAAAA | 0.923 |
| TCAATAGAAGAAGCTATGACC | 0.59 |

From the supplement of paper PMC5655136
